Test results reported in publication PMC4140803 (PLoS ONE, 2014).

Test system: HIV-1RF V82F/184V
Assay: microbe, parasite or virus in culture
Type: cell-based
Conditions: Human immunodeficiency virus 1, C8166, read-out: EC50s

With `Nc1ccn([C@@H]2CS[C@H](CO)O2)c(=O)n1` [3TC, lamivudine, reference compound] the EC50 was over 1000 nM.

Work on `[N-]=[N+]=N[C@]1(CO)O[C@@H](n2ccc(N)nc2=O)[C@@H](F)[C@@H]1O` [FNC, 2′-deoxy-2′-β-fluoro-4′-azidocytidine] yielded an EC50 of 0.37 ± 0.02 nM.
